Data as given in PubChem BioAssay (Tox21).
Values joined by “and” are separate entries in the source; they are usually repeats but may differ in a detail not shown here. Equal entries are not always repeated. Inconclusive means that the source gave no clear call. Such entries were picked first, then a sample of the others. For part of these data: Potencies beside an inconclusive call are fits to weak or partial responses and may not hold up. Active and inactive are the calls of the source. Unless noted, the call rests on the fitted dose curve; in most records, active means well fitted curve in the direction sought with a large enough effect in the repeat runs; inconclusive means weak or mixed curves; inactive means no such curve, though single readings can be large; an effect the other way counts as inactive or inconclusive.

Assays:
[1] = qHTS assay to identify small molecule that activate the aryl hydrocarbon receptor (AhR) signaling pathway - cell viability counter screen (AID 743086); further: nearly all actives have a fitted effect of over 45% in size
In short: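 HepG2-AhR-luc (HG2L7.5c1) cells, 4000/well, were preincubated 5 h at 37C, exposed to compound in qHTS format for 24 hr at 37C, then given CellTiter-Fluor for 30 min; viability was read as fluorescence in the reporter wells.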

[2] = qHTS assay to identify small molecule antagonists of the peroxisome proliferator-activated receptor gamma (PPARg) signaling pathway - cell viability counter screen (AID 743194); details: PPARg-bla HEK293H viability, CellTiter-Glo luminescence, 17 h, co-treated with 50 nM rosiglitazone; activity change, negative = cytotoxicity: at 62.6 µM (top of the series) unless noted; further: nearly all actives have a fitted effect of over 55% in size
In short: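 PPARg-UAS-bla HEK293H cells were plated, rested 5 h at 37 C, then treated with compounds plus rosiglitazone (50 nM final) for 17 h at 37 C; viability was then read by CellTiter-Glo luminescence after 30 min at room temperature.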

[3] = qHTS assay for small molecule agonists of the antioxidant response element (ARE) signaling pathway (AID 743202; active means well fitted activation curve with a large enough effect in the signal ratio in the repeat runs, not every such curve was filed as active; inconclusive means weak or mixed curves, or effect the other way; inactive means no such curve, though single readings can be large or run the other way; the % refers to the signal ratio; on activation: on the % scale 0 is the no-effect control and ±100 the full control effect); details: HepG2 ARE-bla reporter, beta-lactamase FRET, 16 h; activation: at 73.3 µM (top of the series) unless noted
In short: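 Following a 16 h, 37 C exposure of reporter HepG2 cells (ARE-driven beta-lactamase, 2,000 cells/well) to compounds, FRET substrate was applied for 2 h at room temperature and fluorescence intensity recorded.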

[4] = qHTS assay for small molecule activators of the heat shock response signaling pathway - cell viability counter screen (AID 743209); details: HSE-bla HeLa viability, CellTiter-Glo luminescence, 5 h; activity change, negative = cytotoxicity: at 62.6 µM (top of the series) unless noted; further: nearly all actives have a fitted effect of over 50% in size
In short: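 Cytotoxicity counter screen run in the same wells as the heat-shock bla reporter assay: HeLa HSE-bla cells, 5 h compound exposure at 37 C, viability read by CellTiter-Glo luminescence.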

[5] = qHTS assay to identify small molecule agonists of the peroxisome proliferator-activated receptor delta (PPARd) signaling pathway - cell viability counter screen (AID 743211); details: PPARd-bla HEK293H viability, CellTiter-Glo luminescence, 17 h; activity change, negative = cytotoxicity: at 62.6 µM (top of the series) unless noted; further: nearly all actives have a fitted effect of over 55% in size
In short: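 Read-out: CellTiter-Glo luminescence, 30 min RT, measured in the same wells as the beta-lactamase reporter. Cells: GeneBLAzer PPAR delta UAS-bla HEK293H, 3000 cells/well, compound exposure 17 h at 37C.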

[6] = target: Peroxisome proliferator-activated receptor delta (Homo sapiens) (UniProt Q03181); test: qHTS assay to identify small molecule agonists of the peroxisome proliferator-activated receptor delta (PPARd) signaling pathway (AID 743212; calls by dose curve); details: HEK293H PPARd-UAS-bla, beta-lactamase FRET ratio, 17 h; activation: at 62.6 µM (top of the series) unless noted
Sequence of UniProt Q03181 (Q03181 whole entry, looked up): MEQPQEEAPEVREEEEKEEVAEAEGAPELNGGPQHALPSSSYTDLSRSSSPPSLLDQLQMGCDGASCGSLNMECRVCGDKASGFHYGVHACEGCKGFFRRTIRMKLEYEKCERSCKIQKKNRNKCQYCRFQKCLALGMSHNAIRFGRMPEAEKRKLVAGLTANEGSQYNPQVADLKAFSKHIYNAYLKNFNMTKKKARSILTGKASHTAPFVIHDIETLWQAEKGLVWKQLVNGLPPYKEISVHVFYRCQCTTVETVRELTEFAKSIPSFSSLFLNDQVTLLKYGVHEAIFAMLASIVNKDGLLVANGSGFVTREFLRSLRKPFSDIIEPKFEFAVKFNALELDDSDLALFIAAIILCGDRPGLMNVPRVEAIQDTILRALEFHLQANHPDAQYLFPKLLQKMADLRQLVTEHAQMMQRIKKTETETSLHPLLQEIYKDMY
In short: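 Beta-lactamase reporter read by fluorescence (LiveBLAzer B/G FRET, 2 h, room temperature). Test agents, in DMSO, incubated at 37 C with PPARd-bla HEK293H cells.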

[7] = qHTS assay to identify small molecule antagonists of the peroxisome proliferator-activated receptor delta (PPARd) signaling pathway - cell viability counter screen (AID 743213); details: PPARd-bla HEK293H viability, CellTiter-Glo luminescence, 17 h; viability change, negative = cytotoxic: at 62 µM (top of the series) unless noted; further: nearly all actives have a fitted effect of over 50% in size
In short: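 Same-well viability: cells pre-incubated 5 h, dosed with compound plus 300 nM L165041, kept 17 h at 37 C, FRET substrate 2 h RT, then CellTiter-Glo 30 min RT and luminescence.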

[8] = target: Peroxisome proliferator-activated receptor delta (Homo sapiens) (UniProt Q03181); test: qHTS assay to identify small molecule antagonists of the peroxisome proliferator-activated receptor delta (PPARd) signaling pathway (AID 743215; active means well fitted inhibition curve with a large enough effect in the signal ratio in the repeat runs, not every such curve was filed as active; inconclusive means weak or mixed curves, or effect the other way; inactive means no such curve, though single readings can be large or run the other way; the % refers to the signal ratio;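 further: cells stimulated with agonist L165041 at 300 nM final during compound exposure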); details: HEK293H PPARd-UAS-bla, beta-lactamase FRET ratio, antagonist, 17 h; ratio activity, negative = inhibition: at 62 µM (top of the series) unless noted
In short: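 Agonist L165041 (300 nM final) added with compound to PPARd-bla HEK293H UAS-bla reporter cells; 17 h incubation at 37 C. Read-out: LiveBLAzer FRET substrate, 2 h at room temperature, fluorescence intensity.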

[9] = target: Bile acid receptor (Homo sapiens) (UniProt Q96RI1); test: qHTS assay to identify small molecule antagonists of the farnesoid-X-receptor (FXR) signaling pathway (AID 743217; active means well fitted inhibition curve with a large enough effect in the signal ratio in the repeat runs, not every such curve was filed as active; inconclusive means weak or mixed curves, or effect the other way; inactive means no such curve, though single readings can be large or run the other way; the % refers to the signal ratio); details: HEK293T FXR-UAS-bla, beta-lactamase ratio, CDCA-stimulated, 16 h; activity change, negative = inhibition: at 62.6 µM (top of the series) unless noted
Sequence of UniProt Q96RI1 (Q96RI1 whole entry, looked up): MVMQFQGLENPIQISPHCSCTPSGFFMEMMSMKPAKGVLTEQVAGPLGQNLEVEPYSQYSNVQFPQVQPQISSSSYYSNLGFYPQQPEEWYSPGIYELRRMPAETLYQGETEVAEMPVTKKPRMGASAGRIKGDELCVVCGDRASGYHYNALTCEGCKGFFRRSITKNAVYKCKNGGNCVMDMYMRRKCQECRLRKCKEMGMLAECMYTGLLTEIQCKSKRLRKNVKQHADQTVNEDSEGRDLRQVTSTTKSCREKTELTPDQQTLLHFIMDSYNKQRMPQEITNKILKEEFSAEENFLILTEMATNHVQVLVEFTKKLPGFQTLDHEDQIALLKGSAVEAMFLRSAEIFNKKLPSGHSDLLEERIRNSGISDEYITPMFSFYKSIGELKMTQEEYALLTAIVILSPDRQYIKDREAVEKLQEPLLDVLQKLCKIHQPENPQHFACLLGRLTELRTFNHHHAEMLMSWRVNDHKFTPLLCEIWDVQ
In short: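 Antagonist mode: chenodeoxycholic acid at 50 uM final stimulates a UAS-driven beta-lactamase reporter in HEK 293T FXR-bla cells during 16 h, 37C compound exposure. Read-out is FRET substrate fluorescence after 2 h at room temperature.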

[10] = qHTS assay to identify small molecule agonists of the farnesoid-X-receptor (FXR) signaling pathway - cell viability counter screen (AID 743218); details: FXR-bla HEK293T viability, CellTiter-Glo luminescence, 16 h; viability change, negative = cytotoxic: at 62.6 µM (top of the series) unless noted; further: nearly all actives have a fitted effect of over 45% in size
In short: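 Viability counter screen in the same wells: CellTiter-Glo luminescence, 30 min room-temperature incubation, measured after the beta-lactamase read. Cells were GeneBLAzer FXR-UAS-bla HEK 293T, compound-treated 16 h at 37C.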

[11] = target: Bile acid receptor (Homo sapiens) (UniProt Q96RI1); test: qHTS assay to identify small molecule agonists of the farnesoid-X-receptor (FXR) signaling pathway (AID 743220; active means well fitted activation curve with a large enough effect in the signal ratio in the repeat runs, not every such curve was filed as active; inconclusive means weak or mixed curves, or effect the other way; the % refers to the signal ratio; on activation: on the % scale 0 is the no-effect control and ±100 the full control effect); details: HEK293T FXR-UAS-bla, beta-lactamase FRET ratio, 16 h; activation: at 62.6 µM (top of the series) unless noted
In short: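 FXR-UAS-bla HEK 293T cells carrying a UAS-driven beta-lactamase reporter were plated for 5 h at 37C/5% CO2, then exposed to DMSO-dissolved Tox21 10K compounds for 16 h at 37C. A LiveBLAzer B/G FRET substrate was loaded for 2 h at room temperature before fluorescence reading.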

[12] = target: Vitamin D3 receptor (Homo sapiens) (UniProt P11473); test: qHTS assay to identify small molecule agonists of the vitamin D receptor (VDR) signaling pathway (AID 743222; calls by dose curve); details: HEK293T VDR-UAS-bla, beta-lactamase FRET ratio, 16 h; activation: at 63.5 µM (top of the series) unless noted
Sequence of UniProt P11473 (P11473 whole entry, looked up): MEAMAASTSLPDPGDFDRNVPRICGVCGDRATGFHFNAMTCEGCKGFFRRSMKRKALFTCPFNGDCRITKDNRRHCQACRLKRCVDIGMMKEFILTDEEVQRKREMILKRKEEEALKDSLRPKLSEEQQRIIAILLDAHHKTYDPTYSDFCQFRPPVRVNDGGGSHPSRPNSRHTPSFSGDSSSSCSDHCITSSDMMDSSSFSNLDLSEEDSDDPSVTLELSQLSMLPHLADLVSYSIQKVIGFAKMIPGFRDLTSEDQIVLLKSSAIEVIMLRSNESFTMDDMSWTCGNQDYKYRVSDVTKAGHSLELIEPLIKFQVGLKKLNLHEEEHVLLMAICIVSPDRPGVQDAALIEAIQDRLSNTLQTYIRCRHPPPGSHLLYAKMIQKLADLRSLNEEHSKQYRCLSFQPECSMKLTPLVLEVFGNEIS
In short: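 Agonist mode, beta-lactamase reporter: fluorescence from LiveBLAzer B/G FRET substrate (2 h, room temperature) read after 16 h compound treatment at 37 C of VDR-bla cells, which were pre-incubated 4 h after seeding.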

[13] = target: Vitamin D3 receptor (Homo sapiens) (UniProt P11473); test: qHTS assay to identify small molecule antagonists of the vitamin D receptor (VDR) signaling pathway (AID 743223; active means well fitted inhibition curve with a large enough effect in the signal ratio in the repeat runs, not every such curve was filed as active; inconclusive means weak or mixed curves, or effect the other way; inactive means no such curve, though single readings can be large or run the other way; the % refers to the signal ratio); details: VDR-UAS-bla HEK293T, beta-lactamase FRET ratio, 16 h; activity change, negative = inhibition: at 61 µM (top of the series) unless noted
In short: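 Beta-lactamase reporter read-out: FRET substrate fluorescence after 2 h at room temperature, following 16 h exposure of VDR-bla cells to test compound plus 3 nM (final) 1alpha,25-dihydroxyvitamin D3 agonist at 37C.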

[14] = target: Peroxisome proliferator-activated receptor gamma (Homo sapiens) (UniProt P37231); test: qHTS assay to identify small molecule agonists of the peroxisome proliferator-activated receptor gamma (PPARg) signaling pathway (AID 743094; active means well fitted activation curve with a large enough effect in the signal ratio in the repeat runs, not every such curve was filed as active; inconclusive means weak or mixed curves, or effect the other way; inactive means no such curve, though single readings can be large or run the other way; the % refers to the signal ratio; on activation: on the % scale 0 is the no-effect control and ±100 the full control effect); details: HEK293H PPARg-UAS-bla, beta-lactamase FRET ratio, 17 h; activation: at 57 µM (top of the series) unless noted
Sequence of UniProt P37231 (P37231 whole entry, looked up): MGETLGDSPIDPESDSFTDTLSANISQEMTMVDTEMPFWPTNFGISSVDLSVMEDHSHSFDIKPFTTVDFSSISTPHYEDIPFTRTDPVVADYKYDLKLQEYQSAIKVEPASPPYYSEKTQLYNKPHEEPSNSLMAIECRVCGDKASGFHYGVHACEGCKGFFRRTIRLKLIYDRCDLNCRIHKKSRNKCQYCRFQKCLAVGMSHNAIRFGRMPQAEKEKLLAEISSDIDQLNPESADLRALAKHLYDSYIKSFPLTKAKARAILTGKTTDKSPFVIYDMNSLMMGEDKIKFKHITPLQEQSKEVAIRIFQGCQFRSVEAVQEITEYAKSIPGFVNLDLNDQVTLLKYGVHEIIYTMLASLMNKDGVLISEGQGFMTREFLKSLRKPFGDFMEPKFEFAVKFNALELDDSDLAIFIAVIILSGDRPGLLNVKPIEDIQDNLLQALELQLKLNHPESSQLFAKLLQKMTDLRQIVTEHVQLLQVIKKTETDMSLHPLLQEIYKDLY
In short: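 Agonist activity was taken from a beta-lactamase reporter (FRET substrate, 1 h at room temperature) in HEK293H cells carrying a PPARg UAS-bla construct. Compounds in DMSO were incubated 17 h at 37C after a 5 h cell pre-incubation.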

[15] = target: Peroxisome proliferator-activated receptor gamma (Homo sapiens) (UniProt P37231); test: qHTS assay to identify small molecule antagonists of the peroxisome proliferator-activated receptor gamma (PPARg) signaling pathway (AID 743191; calls by dose curve; further: nearly all actives have a fitted effect of over 30% in size; on ratio activity, negative = inhibition: on the % scale 0 is the no-effect control and ±100 the full control effect); details: HEK293H PPARg-UAS-bla, beta-lactamase ratio, antagonist, 17 h; ratio activity, negative = inhibition: at 62.6 µM (top of the series) unless noted
In short: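 GeneBLAzer PPARg UAS-bla HEK293H cells carrying a UAS-driven beta-lactamase reporter were plated at 3000 cells/well, preincubated 5 h at 37C, then given compound for 17 h at 37C; LiveBLAzer B/G FRET substrate was read after 1 h at room temperature.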

[16] = qHTS assay to identify small molecule antagonists of the farnesoid-X-receptor (FXR) signaling pathway - cell viability counter screen (AID 743221; active means well fitted cell-killing curve with a large enough effect in the repeat runs, not every such curve was filed as active; inconclusive means weak or mixed curves, or effect the other way; inactive means no such curve, though single readings can be large or run the other way; further: nearly all actives have a fitted effect of over 50% in size); details: FXR-bla HEK293T viability, CellTiter-Glo luminescence, 16 h; activity change, negative = cytotoxicity: at 62.6 µM (top of the series) unless noted
In short: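 HEK 293T FXR-bla cells, 5 h pre-incubation; compound + CDCA 50 uM final, 16 h, 37 C; beta-lactamase FRET read first, then CellTiter-Glo luminescence, 30 min RT.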

[17] = qHTS assay to identify small molecule agonists of the vitamin D receptor (VDR) signaling pathway - cell viability counter screen (AID 743224); details: VDR-bla HEK293T viability, CellTiter-Glo luminescence, 16 h; activity change, negative = cytotoxicity: at 62.6 µM (top of the series); further: nearly all actives have a fitted effect of over 50% in size
In short: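 Counter screen run in the same wells as the VDR-bla reporter assay: CellTiter-Glo luminescence, 30 min at room temperature, after 16 h compound treatment at 37C of cells pre-plated for 4 h.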
Potency means the concentration at half of the fitted maximal effect; tags describe the fitted curve by direction and shape or compound fluorescence and quenching.

## COc1cc(C=C2CCC/C(=C\c3ccc(O)c(OC)c3)C2=O)ccc1O
[1]
  Potency: active: 23.7 µM
[2]
  Potency: active: 21.1 µM
[3]
  Potency: inconclusive: 11.9 µM
[4]
  Potency: inconclusive: 23.7 µM [cytotoxic, partial curve, poor fit]
[5]
  Potency: active: 29.8 µM
[6]
  Potency: inconclusive: 9.44 µM [rising, partial curve]
[7]
  Potency: active: 33.5 µM
[8]
  Potency: inconclusive: 11.9 µM [rising, full curve]
[9]
  Potency: inconclusive: 18.8 µM [partial curve]
[10]
  Potency: active: 21.1 µM
[11]
  Potency: inconclusive: 21.1 µM [rising, partial curve]
[12]
  Potency: inconclusive: 21.1 µM [rising, partial curve]
[13]
  Potency: inconclusive: 21.3 µM [rising, partial curve]

## CC(C)(C)c1cc(C(C)(C)C)c(O)c(C(C)(C)C)c1
[14]
  Potency: inconclusive: 2.75 µM [activator, full curve, poor fit]
  activation: inconclusive: 2.46%
[15]
  Potency: inconclusive: 12.3 µM [activator, partial curve]
  ratio activity, negative = inhibition: inconclusive: 26.6%
[2]
  Potency: inconclusive: 54.9 µM [cytotoxic, single point]
[3]
  Potency: inconclusive: 2.17 µM [falling, full curve]
  activation: inconclusive: 4.38%
[5]
  Potency: inconclusive: 43.6 µM [cytotoxic, partial curve, poor fit] and active: 49 µM
[6]
  Potency: inconclusive: 1.95 µM [rising, full curve, poor fit]
[9]
  Potency: inconclusive: 61.7 µM [rising, partial curve, poor fit] and inconclusive: 54.9 µM [rising, partial curve, poor fit]
[10]
  Potency: inconclusive: 54.9 µM [cytotoxic, single point] and inconclusive: 49 µM [cytotoxic]
[11]
  activation: inconclusive: 4.73%
[16]
  Potency: inconclusive: 61.6 µM [falling, single point]
[17]
  Potency: inconclusive: 21.9 µM [cytotoxic, partial curve, poor fit] and active: 38.9 µM

## Fc1ccccc1
[1]
  Potency: inactive
[3]
  Potency: inconclusive: 3.09 µM [falling, full curve]
[7]
  Potency: inconclusive: 62.2 µM [rising, partial curve, poor fit]
[8]
  ratio activity, negative = inhibition: inconclusive: 7.84% [at 80.4 µM]
[13]
  activity change, negative = inhibition: inconclusive: 3.18% [at 78.8 µM]

## c1ccc2scnc2c1
[1]
  Potency: inactive
[3]
  Potency: inactive
[8]
  Potency: inconclusive: 0.0062 µM [fluorescent, full curve, poor fit]
  ratio activity, negative = inhibition: inconclusive: -0.962%
[16]
  Potency: inconclusive: 0.616 µM [falling, full curve, poor fit]
[13]
  Potency: inactive
[17]
  Potency: inconclusive: 21.9 µM [cytotoxic, single point]
